Results taken from PMC9795039, “Kindlin2 enables EphB/ephrinB bi-directional signaling to support vascular development” (Life Science Alliance, 2022).
Numbering of substitutions follows the chain as printed. No constants are given. Whether binding was seen depends on the method and setting. For some of these results: Binding seen in cells or lysates may run through a third protein. Some entries that bind do so weakly or less than the wild type. For some of these results: Where a sequence is shown, tags or fusion partners need not be part of it. Blank lines part the entries; values can stand above or below the molecule they belong to.

Sequences of proteins named here, by UniProt entry; tags and fusion partners are left off. A change or cut given only in a name is not applied to a line headed by its entry. Residues count along the entry.
UniProt P54760, residues 16-987: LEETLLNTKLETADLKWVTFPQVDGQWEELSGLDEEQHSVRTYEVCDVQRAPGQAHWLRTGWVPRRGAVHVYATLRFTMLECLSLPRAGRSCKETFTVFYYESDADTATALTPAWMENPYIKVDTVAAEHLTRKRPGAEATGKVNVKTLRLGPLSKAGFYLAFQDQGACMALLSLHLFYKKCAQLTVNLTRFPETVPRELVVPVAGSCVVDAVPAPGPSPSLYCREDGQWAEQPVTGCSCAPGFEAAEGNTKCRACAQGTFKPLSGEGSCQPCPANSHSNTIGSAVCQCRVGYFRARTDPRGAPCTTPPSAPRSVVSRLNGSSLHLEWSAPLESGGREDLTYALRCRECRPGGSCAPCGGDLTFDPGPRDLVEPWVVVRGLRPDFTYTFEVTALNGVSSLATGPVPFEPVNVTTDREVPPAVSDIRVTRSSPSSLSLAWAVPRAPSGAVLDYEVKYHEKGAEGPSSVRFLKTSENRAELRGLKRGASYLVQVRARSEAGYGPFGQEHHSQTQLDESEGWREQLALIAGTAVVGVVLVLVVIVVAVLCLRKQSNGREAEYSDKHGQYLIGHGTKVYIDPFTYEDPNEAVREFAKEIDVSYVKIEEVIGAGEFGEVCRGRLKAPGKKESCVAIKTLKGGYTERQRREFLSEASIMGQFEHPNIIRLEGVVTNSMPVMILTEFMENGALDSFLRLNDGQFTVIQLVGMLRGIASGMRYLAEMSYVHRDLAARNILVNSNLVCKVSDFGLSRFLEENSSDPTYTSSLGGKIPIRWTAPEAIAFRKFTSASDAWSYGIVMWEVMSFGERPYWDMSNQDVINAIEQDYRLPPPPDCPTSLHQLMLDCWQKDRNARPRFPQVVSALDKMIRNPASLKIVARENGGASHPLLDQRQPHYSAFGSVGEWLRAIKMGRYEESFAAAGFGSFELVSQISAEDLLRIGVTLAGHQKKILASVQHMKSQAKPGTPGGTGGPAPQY
UniProt P05556, residues 752-798: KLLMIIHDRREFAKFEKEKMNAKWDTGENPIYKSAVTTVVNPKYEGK
UniProt Q96AC1: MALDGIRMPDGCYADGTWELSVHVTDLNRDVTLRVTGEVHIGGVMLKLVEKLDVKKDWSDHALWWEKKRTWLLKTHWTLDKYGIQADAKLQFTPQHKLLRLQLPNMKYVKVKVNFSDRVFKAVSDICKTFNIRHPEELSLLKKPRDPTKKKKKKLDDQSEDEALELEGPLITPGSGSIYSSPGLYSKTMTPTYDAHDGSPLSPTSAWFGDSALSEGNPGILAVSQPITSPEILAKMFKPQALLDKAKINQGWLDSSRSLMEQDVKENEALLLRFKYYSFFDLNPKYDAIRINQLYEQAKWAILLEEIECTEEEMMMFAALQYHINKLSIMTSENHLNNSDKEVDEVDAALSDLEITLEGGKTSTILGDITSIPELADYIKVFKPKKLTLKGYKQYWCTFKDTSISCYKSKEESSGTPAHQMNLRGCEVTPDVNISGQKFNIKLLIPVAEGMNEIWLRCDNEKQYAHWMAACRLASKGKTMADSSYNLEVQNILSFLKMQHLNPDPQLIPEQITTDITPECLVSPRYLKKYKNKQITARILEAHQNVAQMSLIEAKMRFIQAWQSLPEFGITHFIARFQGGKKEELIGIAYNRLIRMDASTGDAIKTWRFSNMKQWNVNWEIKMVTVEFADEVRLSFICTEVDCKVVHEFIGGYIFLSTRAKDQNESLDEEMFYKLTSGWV
UniProt Q86UX7: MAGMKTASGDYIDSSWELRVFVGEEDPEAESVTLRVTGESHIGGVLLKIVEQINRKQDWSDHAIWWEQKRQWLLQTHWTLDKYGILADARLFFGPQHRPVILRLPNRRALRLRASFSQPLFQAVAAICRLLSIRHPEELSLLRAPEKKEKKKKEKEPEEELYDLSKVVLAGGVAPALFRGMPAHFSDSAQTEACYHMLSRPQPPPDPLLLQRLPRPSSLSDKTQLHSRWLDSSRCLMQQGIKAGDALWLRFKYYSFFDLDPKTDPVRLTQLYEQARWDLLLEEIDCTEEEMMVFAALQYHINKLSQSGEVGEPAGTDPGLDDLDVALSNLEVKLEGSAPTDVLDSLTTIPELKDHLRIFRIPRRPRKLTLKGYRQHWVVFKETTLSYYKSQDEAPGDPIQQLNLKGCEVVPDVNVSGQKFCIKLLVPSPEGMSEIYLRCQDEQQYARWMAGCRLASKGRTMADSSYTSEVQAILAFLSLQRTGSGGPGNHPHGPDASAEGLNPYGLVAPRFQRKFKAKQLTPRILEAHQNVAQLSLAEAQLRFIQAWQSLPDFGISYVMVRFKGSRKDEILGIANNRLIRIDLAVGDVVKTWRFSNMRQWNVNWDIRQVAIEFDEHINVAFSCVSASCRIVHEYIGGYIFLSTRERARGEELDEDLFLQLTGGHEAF

How the values were obtained:
[1] = biological target: T1, his/Avi-tagged cytoplasmic tail of ephrinB2 4A (UniProt P52799); test: pull-down; purified his/Avi-tagged cytoplasmic tails (5 µg) immobilised on NeutrAvidin beads, incubated with lysate of cells expressing the GFP-tagged protein at 4°C for 1 h in 50 mM Tris-Cl, 150 mM NaCl, 0.5% NP-40, 0.5% Triton X-100, 0.5 mM CaCl2, 0.5 mM MgCl2, pH 7.4; Western blot with anti-GFP antibody; only the target purified
T1 sequence (chain, biotinylated): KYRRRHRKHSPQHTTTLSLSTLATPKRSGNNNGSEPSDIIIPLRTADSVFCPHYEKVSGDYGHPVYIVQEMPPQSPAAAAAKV

[2] = biological target: T2, his/Avi-tagged cytoplasmic tail of ephrinB2 WT (UniProt P52799); test: as above
T2 sequence (chain, biotinylated): T1 sequence (chain, biotinylated) with A78N, A79I, A80Y, A81Y

HA-EphB4 [3] = biological target: HA-EphB4 (UniProt P54760); test: co-IP; BT16 stable cells (flag-ephrinB2) and HEK293 stable cells (HA-EphB4) mixed and co-cultured, lysed in NP-40 lysis buffer; immunoprecipitation with anti-HA antibody, blots with anti-HA and anti-flag antibodies; also after kindlin2 shRNA in BT16 or integrin β1 shRNA in HEK293
HA-EphB4 [4] = biological target: HA-EphB4 (UniProt P54760); test: co-IP; cells co-transfected with HA-EphB4 and flag-ephrinB2 WT or 6A; immunoprecipitation with anti-HA antibody, blot with anti-flag antibody
[5] = biological target: T3, his/Avi-tagged cytoplasmic tail of ephrinB3 (UniProt Q15768); test: pull-down; purified his/Avi-tagged cytoplasmic tails (5 µg) immobilised on NeutrAvidin beads, incubated with lysate of cells expressing the GFP-tagged protein at 4°C for 1 h in 50 mM Tris-Cl, 150 mM NaCl, 0.5% NP-40, 0.5% Triton X-100, 0.5 mM CaCl2, 0.5 mM MgCl2, pH 7.4; Western blot with anti-GFP antibody; only the target purified
T3 sequence (chain, biotinylated): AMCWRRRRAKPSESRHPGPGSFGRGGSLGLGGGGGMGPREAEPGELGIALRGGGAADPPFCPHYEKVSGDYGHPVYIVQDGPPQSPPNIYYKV

[6] = biological target: his/Avi-tagged cytoplasmic tail of integrin β1A (UniProt P05556); test: as above
[7] = biological target: T4, his/Avi-tagged cytoplasmic tail of ephrinB1 (UniProt P98172); test: as above
T4 sequence (chain, biotinylated): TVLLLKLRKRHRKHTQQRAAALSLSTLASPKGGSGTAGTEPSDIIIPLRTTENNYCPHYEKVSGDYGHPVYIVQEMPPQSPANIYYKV

[8] = biological target: T1, his/Avi-tagged cytoplasmic tail of ephrinB2 4A; test: pull-down; in vitro binding assay: purified kindlin2 mixed with purified cytoplasmic tails immobilised on NeutrAvidin beads; Western blot with anti-kindlin2 antibody; both purified
flag-ephrinB2 (human) = flag-ephrinB2 (human) (UniProt P52799); test: co-IP; mCherry-kindlin2 co-transfected with flag-tagged proteins in HEK293 cells; immunoprecipitation with anti-flag antibody, blot with anti-mCherry antibody
[9] = biological target: flag-ephrinB2 (4A) (human) (UniProt P52799); test: as above
[10] = biological target: T5, cytoplasmic tail of zebrafish ephrinB2a 4A (zebrafish) (UniProt O73874); test: pull-down; purified his/Avi-tagged cytoplasmic tails (5 µg) immobilised on NeutrAvidin beads, incubated with lysate of cells expressing the GFP-tagged protein at 4°C for 1 h in 50 mM Tris-Cl, 150 mM NaCl, 0.5% NP-40, 0.5% Triton X-100, 0.5 mM CaCl2, 0.5 mM MgCl2, pH 7.4; Western blot with anti-GFP antibody; only the target purified
T5 sequence: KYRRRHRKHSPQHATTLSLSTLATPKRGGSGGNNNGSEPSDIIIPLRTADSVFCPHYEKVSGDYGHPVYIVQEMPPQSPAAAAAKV

[11] = biological target: T6, cytoplasmic tail of zebrafish ephrinB2a WT (zebrafish) (UniProt O73874); test: as above
T6 sequence: T5 sequence with A81N, A82I, A83Y, A84Y

- binding (HA-EphB4 [3]): binds
Molecule: flag-ephrinB2 (BT16 stable cells) (from UniProt P52799 28-333) (ligand)

- binding (HA-EphB4 [4]): no binding
Molecule: flag-ephrinB2 6A (from UniProt P52799 28-333) (ligand)

- binding [5]: binds
- binding [6]: binds
- binding [7]: binds
- binding [1]: binds weakly
- binding [2]: binds
Molecule: GFP-kindlin2 (from UniProt Q96AC1 1-680)

- binding [8]: binds weakly
Molecule: his-tagged human full-length kindlin2 (from UniProt Q96AC1 1-680)

- binding [10]: no binding
- binding [11]: binds
B1: GFP-zebrafish kindlin2 (protein, UniProt F1Q8X5 1-684)
chain: MALDGIRMPDGCYADGTWELKMHVTDLNRDVSLRVTGEIHIGGVMLKLVEKLDVKKDWSDHALWWEKKKTWLLKTHWTLDKYGIQADARLLFTPQHKLLRLQLPNMKHMRVKVNFSDRVFKAVSDICKTFNIRHPEELSLLRKPRDPKKKKKKLEDAEEETLELEGPLLTPGSGSIYSSPGLYSKTMTPTYDSRDGSPLSPTSAWFGDSPLSEGNPSILAVSQPITSPDILVKMYKPQSLLDKAKINQGWLDSSRSLMEQDVKENEVLLLRFKYHSFFDLNPKYDAIRVNQLYEQAKWAILLEEIECTEEEMMMFAALQYHINKLSIMSSDNHMNNSEKEVDEVDAALSDLEITLEGGKTSNTLGDITSIPELADYVKVFKPKKLTLKGYKQYWCTFKDITISCYKSREEAHGTPAHQMNLRGCEVTPDVNISGQKFNIKLLIPVADGMNEIWLRCDTEKQYAQWMAACRLASKGKTMADSSYNLEVQNILSFLKMQHMNPDPQIIEPITTDINPECLVSPRYLKKYKNKQPGFVRDLISARILEAHQNVAQMSLIEAKMRFIQAWQSLPEFGITHFLAKFQGGKKDELIGITYNRLIRMDAGTGDAIKTWRFSNMKQWNVNWEIKMVTVEFADEPSLAFICAEVDCKVVHEFIGGYIFLSTRAKDQNESLDEEMFYKLTSGWV

Continued, molecule first:

Molecule: kindlin3 (from UniProt Q86UX7 1-667)
- binding [1]: binds
- binding [2]: binds

Molecule: flag-ephrinB2 (from UniProt P52799 28-333) (ligand)
- binding (HA-EphB4 [4]): binds

Molecule: GFP-kindlin2 W615A (from UniProt Q96AC1 1-680)
- binding [2]: binds

Molecule: mCherry-kindlin2 (from UniProt Q96AC1 1-680)
- binding (flag-ephrinB2 (human)): binds
- binding [9]: no binding
